Counter-ions that a name gives are not always drawn. Like-named read-outs stand apart in the source and are kept apart here.
Legend:
[1] = test system: HIV-1 reverse transcriptase (endogenous RT in virions); test: Endogenous reverse transcriptase assay; format: biochemical; conditions: M184V virions
HIV-1 RT mutants = conditions: cited from earlier work
[2] = test system: HIV-1 isolates B, C, CRF_AE, CRF_AG; format: cell-based; conditions: for resistance of mutant: K65R/M184V in clinical isolates
HIV-1 NL4-3 = test: Dose-response assay in TZM-GFP cells, NL4-3 molecular clones with RT mutations
[3] = test system: HIV-1 xxLAI (wildtype, K65R, M184V); format: cell-based
SIV = test system: SIV; set-up: method as in ref 12 = [12]; conditions: SIV with M184V mutation present in ISL-treated rhesus macaques; cited from earlier work
HIV-1 RT = test system: HIV-1 RT; set-up: method as in ref 20 = [20]; conditions: M184V RT; cited from earlier work
[4] = K65R virus, TDF:ISL 1:1 combination
[5] = K65R virus, TDF:ISL 10:1 combination
[6] = K65R virus, TDF:ISL 100:1 combination
[7] = M184V virus, TDF:ISL 1:1 combination
[8] = Wildtype virus, TDF:ISL 1:1 combination
[9] = Wildtype virus, TDF:ISL 10:1 combination
[10] = Wildtype virus, TDF:ISL 100:1 combination (initial combination only)

| SMILES | fold resistance (HIV-1 RT mutants; M184V/I) | fold resistance relative to respective WT (EC50) ([2]; CRF_AG K65R/M184V) [fold] | resistance of mutant [2] | fold resistance relative to respective WT (EC50) ([2]; isolate B K65R/M184V) [fold] | fold resistance relative to respective WT (EC50) ([2]; isolate C K65R/M184V) [fold] | fold resistance relative to WT (EC50 fold change) (HIV-1 NL4-3; NL4-3 K65R/M184V) [fold] | final drug concentration the virus escaped from [3, 4] [nM] | final drug concentration the virus escaped from [3, 5] [nM] | final drug concentration the virus escaped from [3, 6] [nM] | final drug concentration the virus escaped from [3, 7] [nM] | final drug concentration the virus escaped from [3, 8] [nM] | final drug concentration the virus escaped from [3, 9] [nM] | final drug concentration the virus escaped from [3, 10] [nM] | other results |
| --- | --- | --- | --- | --- | --- | --- | --- | --- | --- | --- | --- | --- | --- | --- |
| C#C[C@]1(COP(=O)(O)OP(=O)(O)OP(=O)(O)O)O[C@@H](n2cnc3c(N)nc(F)nc32)C[C@@H]1O [ISL-TP] |  |  |  |  |  |  |  |  |  |  |  |  |  | resistance phenotype (IC50 fold change from WT) [1]: conferred resistance |
| Nc1ccn([C@@H]2CS[C@H](CO)O2)c(=O)n1 [3TC, lamivudine] | > 100 fold |  |  |  |  |  |  |  |  |  |  |  |  |  |
| CC(C)OC(=O)OCOP(=O)(CO[C@H](C)Cn1cnc2c(N)ncnc21)OCOC(=O)OC(C)C [TDF, Tenofovir disoproxil fumarate] |  | 1.5 | mild resistance | 3 | 2.7 | 2 | 7.2 | 72 | 360 | 130 | 14.4 | 144 | 360 | fold resistance relative to respective WT (EC50) ([2]; CRF_AE K65R/M184V (native Gly68)): 5.2 fold; susceptibility of mutant relative to WT ([2]; M184V, regardless of the isolate): as susceptible to TDF as WT; fold more sensitive than WT (EC50) (HIV-1 NL4-3; NL4-3 M184V): 2 fold; susceptibility of mutant (HIV-1 NL4-3; NL4-3 S68G/M184V): susceptible; susceptibility of mutant (HIV-1 NL4-3; NL4-3 S68N/M184V): susceptible; fold sensitivity (HIV-1 RT mutants; A114S/M184V mutant): 40 fold |
| Nc1nc(=O)n([C@@H]2CS[C@H](CO)O2)cc1F [FTC, emtricitabine] | > 100 fold |  |  |  |  |  |  |  |  |  |  |  |  |  |
| C#C[C@]1(CO)O[C@@H](n2cnc3c(N)nc(F)nc32)C[C@@H]1O [ISL, 4′-ethynyl-2-fluoro-2′-deoxyadensine] | ~ 8 fold | 4.5 | mild resistance | 1.4 | 3 | 3 | 7.2 | 7.2 | 3.6 | 130 | 14.4 | 14.4 | 3.6 | fold resistance relative to wildtype (EC50) ([2]; CRF_AE K65R/M184V with Ser68): 3.5 fold; fold resistance relative to respective WT (EC50) ([2]; CRF_AE M184V (native Gly68)): 3 fold; fold resistance relative to wildtype (EC50) ([2]; CRF_AE M184V with Ser68): 3.5 fold; fold resistance relative to respective WT (EC50) ([2]; CRF_AG M184V): 8 fold; fold resistance relative to respective WT (EC50) ([2]; isolate B M184V): 3.5 fold; fold resistance relative to respective WT (EC50) ([2]; isolate C M184V): 9.5 fold; viral suppression (SIV): fully suppressed; fold resistance relative to WT (EC50 fold change) (HIV-1 NL4-3; NL4-3 M184V): 7 fold; fold resistance relative to WT (EC50 fold change) (HIV-1 NL4-3; NL4-3 S68G/M184V): 6 fold; fold resistance relative to WT (EC50 fold change) (HIV-1 NL4-3; NL4-3 S68N/M184V): 12 fold; fold resistance (HIV-1 RT mutants; A114S/M184V mutant): 25 fold; fold resistance relative to wildtype RT (HIV-1 RT): 8 fold |

Reference: PMC10612037 (Viruses, 2023)
